Reference: publication PMC7819943, “Rice protein-binding microarrays: a tool to detect cis-acting elements near promoter regions in rice”
Some of the results follow.

molecular target: T1, OsWOX13 (Oryza sativa, UniProt Q5QMM3 1-267); assay: protein-binding microarray (RPBM); PBS, 2% BSA, 51.3 ng/ul salmon testes DNA, 50 uM zinc acetate, 200 nM TF, 25 C, 1 h; high values mean tight binding; conditions: protein: recombinant; tags: N-terminal polyhistidine and DsRed monomer fusion (pET32a); label: CyDye5-dUTP incorporated in the synthesized complementary strand; 3' TTTTT single-stranded linker to array surface; dsDNA, one strand shown
T1 sequence: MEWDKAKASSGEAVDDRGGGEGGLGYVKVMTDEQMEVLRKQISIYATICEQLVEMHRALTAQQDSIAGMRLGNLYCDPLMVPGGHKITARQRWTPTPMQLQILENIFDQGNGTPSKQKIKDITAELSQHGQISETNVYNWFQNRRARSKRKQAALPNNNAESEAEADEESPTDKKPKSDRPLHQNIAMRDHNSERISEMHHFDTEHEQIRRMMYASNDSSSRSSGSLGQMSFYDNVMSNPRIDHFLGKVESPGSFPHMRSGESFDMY
Summary of the method: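 Binding signal here means per-feature fluorescence intensity in arbitrary units. The values were read on an Axon 4000B scanner after a custom Agilent array, double-stranded by primer extension with Cy5-dUTP, was incubated with 200 nM protein at 25 °C for 1 h in PBS with 2% BSA, salmon testes DNA and 50 µM zinc acetate, then washed. The proteins were transcription factors with an N-terminal polyhistidine tag and DsRed, expressed in E. coli BL21-CodonPlus and purified on Ni–NTA.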

How did the binding signal turn out when “GACTCAGGGTAAATTATTCAATCCTATTTTAACTTATACTCGGAGTCACCTAGTGCAG” was run?
Its binding signal is 4480 fluorescence intensity (a.u.).

With “AGTATTGTTTTCTCGCTGTCTCTATCCAAATCTTTGAAAACGGAGTCACCTAGTGCAG” as the sequence, how does the binding signal read?
Its binding signal is 3390 fluorescence intensity (a.u.).

With “ATCTAAATTGGTCATGTTCTCTGATTAGTGAGTGCCCTGCCGGAGTCACCTAGTGCAG” as the sequence, how does the binding signal read?
Its binding signal is 37800 fluorescence intensity (a.u.).

Which binding signal does the source give for “CAAATTGTACCAATTAAGTCAATCCTAACTTCTATACCAACGGAGTCACCTAGTGCAG” here?
Its binding signal is 18200 fluorescence intensity (a.u.).

“CCTTAAAGGTAATTGTTGGGGAATGACATCAAATTAGCTTCGGAGTCACCTAGTGCAG” was tested. Which binding signal did it give?
The binding signal was 12700 fluorescence intensity (a.u.).

“GATGGCAATCATAGAGCCATCAGGTAACTGTGCCTTGTAGCGGAGTCACCTAGTGCAG” was tested. Which binding signal did it give?
The binding signal was 3510 fluorescence intensity (a.u.).

“TTAAATTTACTTTTCATTTTAAGGCAAAATTTGCTATATGCGGAGTCACCTAGTGCAG” was tested. Which binding signal did it give?
The binding signal was 12800 fluorescence intensity (a.u.).

For “ACGTAATTATAATTTATTTTGTTATGAGTTGGTTTATCACCGGAGTCACCTAGTGCAG”, which binding signal is on record?
The binding signal was 62600 fluorescence intensity (a.u.).

How did the binding signal turn out when “CAAATTGACCCTTTTGGAAAACTTATTTCGAAACTAACCCCGGAGTCACCTAGTGCAG” was run?
The binding signal was 4690 fluorescence intensity (a.u.).

With “ACATGAGCTAATTTTGATATAAATTGGTTTTCCTTGACCACGGAGTCACCTAGTGCAG” as the sequence, how does the binding signal read?
Its binding signal is 9520 fluorescence intensity (a.u.).

Which binding signal does the source give for “CAAATTCTAATCAATTTCGTATTTACTCCGTCTACTACTACGGAGTCACCTAGTGCAG” here?
Its binding signal is 9400 fluorescence intensity (a.u.).

How did the binding signal turn out when “TGCTTGCCTCAAGTTGATTGCCAAATCGAACCATGTTATTCGGAGTCACCTAGTGCAG” was run?
Its binding signal is 4940 fluorescence intensity (a.u.).

How did the binding signal turn out when “TGTCAGAAGTAAATTTGACTGAGATTAACAGAATGCCACTCGGAGTCACCTAGTGCAG” was run?
Its binding signal is 17100 fluorescence intensity (a.u.).

For “TTATAAAATGAATGGAATAATAACAAACTCAATGGCAATTCGGAGTCACCTAGTGCAG”, which binding signal is on record?
The binding signal was 3410 fluorescence intensity (a.u.).

How did the binding signal turn out when “CTATAATATATCTAAATTACTTTTAGGCTTTATTGAATTTCGGAGTCACCTAGTGCAG” was run?
The binding signal was 6430 fluorescence intensity (a.u.).

For “CGGTAATGGACAGTACAACTACCAGTACAAGATCCGGGTGCGGAGTCACCTAGTGCAG”, which binding signal is on record?
Its binding signal is 13500 fluorescence intensity (a.u.).

“AGATGGATGACTAAATTGCACCCACCTTACAGGTTGTGGTCGGAGTCACCTAGTGCAG” was tested. Which binding signal did it give?
The binding signal was 3170 fluorescence intensity (a.u.).

For “TTTGATTATAGTACATATCATGTCCAAACTCTCAACGACCCGGAGTCACCTAGTGCAG”, which binding signal is on record?
Its binding signal is 17600 fluorescence intensity (a.u.).

For “GTGCAATTAAGCGTGTAGGGATTGGTTGGTTTAGCTCAAGCGGAGTCACCTAGTGCAG”, which binding signal is on record?
The binding signal was 4090 fluorescence intensity (a.u.).

For “TACACTATAATTACACTCTGTAAGTAGTATGTAACTGAGTCGGAGTCACCTAGTGCAG”, which binding signal is on record?
Its binding signal is 5500 fluorescence intensity (a.u.).

Which binding signal does the source give for “TTGATGGATGGGAAATCATTTCCCCTATCCCATTAGCCAACGGAGTCACCTAGTGCAG” here?
Its binding signal is 14400 fluorescence intensity (a.u.).

“GATATAATTAAGATATGATATATGCAGGAAGTAATAGTAACGGAGTCACCTAGTGCAG” was tested. Which binding signal did it give?
The binding signal was 4660 fluorescence intensity (a.u.).

With “ACCGTTGCAATTACTTATTCGTTTCCTCCTTTCAAAATATCGGAGTCACCTAGTGCAG” as the sequence, how does the binding signal read?
The binding signal was 3840 fluorescence intensity (a.u.).

“GCACCTGTGATTATGTGAAGACGAAATCTTCAACCATGGACGGAGTCACCTAGTGCAG” was tested. Which binding signal did it give?
The binding signal was 11800 fluorescence intensity (a.u.).

How did the binding signal turn out when “CAAAGGATTGTGCACAGTAATTGACAAGACATTTAATCAGCGGAGTCACCTAGTGCAG” was run?
Its binding signal is 21700 fluorescence intensity (a.u.).

With “ATGATGGTCAAATAATAGAATTAGATGCACCGGTCATATGCGGAGTCACCTAGTGCAG” as the sequence, how does the binding signal read?
The binding signal was 3850 fluorescence intensity (a.u.).

How did the binding signal turn out when “AGTACTACCACTCAATCACTCATGGTGAATAAAAGACTTACGGAGTCACCTAGTGCAG” was run?
Its binding signal is 4760 fluorescence intensity (a.u.).

“AAACCAATTTCAATTACCAATTACTCCCTAATATTAGCTACGGAGTCACCTAGTGCAG” was tested. Which binding signal did it give?
Its binding signal is 18900 fluorescence intensity (a.u.).

Which binding signal does the source give for “CTCTGATAGATTGCGACCTTCTTGTTGTTTAACAACGTTACGGAGTCACCTAGTGCAG” here?
The binding signal was 54000 fluorescence intensity (a.u.).

Which binding signal does the source give for “AAAATTTTAGTTATTAACAACAAATAAAACTGGTTTGCCACGGAGTCACCTAGTGCAG” here?
The binding signal was 3510 fluorescence intensity (a.u.).

“ATATGATGATCAATATTGCAGAAACAAACACATCAGATGACGGAGTCACCTAGTGCAG” was tested. Which binding signal did it give?
The binding signal was 3570 fluorescence intensity (a.u.).

With “TTTGATTAGGGCCTCTTGGGTCATAACAGGAGGGTTTTAACGGAGTCACCTAGTGCAG” as the sequence, how does the binding signal read?
The binding signal was 9310 fluorescence intensity (a.u.).

“TCGTAAATTTAACTTCAAAAGTTAGATATAGAGCTTTACTCGGAGTCACCTAGTGCAG” was tested. Which binding signal did it give?
Its binding signal is 8090 fluorescence intensity (a.u.).

For “ACAAATTTGACTATTTTCAGTTAACCCTTACCCAACAATTCGGAGTCACCTAGTGCAG”, which binding signal is on record?
Its binding signal is 14900 fluorescence intensity (a.u.).

With “TATGGTTTAAATTGGCATCGGGAGAATAAGAGAGAGAGAGCGGAGTCACCTAGTGCAG” as the sequence, how does the binding signal read?
The binding signal was 5580 fluorescence intensity (a.u.).

With “ATTGTATAGATTGTGACTAATTTGTGAGATGAATCTTTTACGGAGTCACCTAGTGCAG” as the sequence, how does the binding signal read?
Its binding signal is 15000 fluorescence intensity (a.u.).

With “TGAACTGATTTATCCAATGGTATAATCTTCTTAATTACGTCGGAGTCACCTAGTGCAG” as the sequence, how does the binding signal read?
The binding signal was 17700 fluorescence intensity (a.u.).

With “ATGACTTGAAATTGAATTATCAGGATGCTAACATAACAGACGGAGTCACCTAGTGCAG” as the sequence, how does the binding signal read?
Its binding signal is 3940 fluorescence intensity (a.u.).

“CTTGCACGACACATTCAAATTAAATTTGACTTGCACGATACGGAGTCACCTAGTGCAG” was tested. Which binding signal did it give?
The binding signal was 3330 fluorescence intensity (a.u.).

For “ACGAATCTTTTGAGTCTAATTACACCATGATTTTGACAATCGGAGTCACCTAGTGCAG”, which binding signal is on record?
Its binding signal is 3770 fluorescence intensity (a.u.).

“TCCTGTGATGGACTTGTGGTGTCCATCTTTTACTGAATAGCGGAGTCACCTAGTGCAG” was tested. Which binding signal did it give?
The binding signal was 3730 fluorescence intensity (a.u.).

For “GTCGTTATAAATTAACTAACTACTATTTTAACACAAATTTCGGAGTCACCTAGTGCAG”, which binding signal is on record?
The binding signal was 4120 fluorescence intensity (a.u.).

How did the binding signal turn out when “TAGAGGTGATGGAAATTGATAGGGAATTTAGTTGGAGATTCGGAGTCACCTAGTGCAG” was run?
Its binding signal is 28500 fluorescence intensity (a.u.).

“GTGAGCCATTAGCGCATGATTAATTGAGTATTAACTATTTCGGAGTCACCTAGTGCAG” was tested. Which binding signal did it give?
The binding signal was 4390 fluorescence intensity (a.u.).

“ATTGACAAGATAGATTGTTGCCCAATTTTCGAAGATGCTCCGGAGTCACCTAGTGCAG” was tested. Which binding signal did it give?
Its binding signal is 42000 fluorescence intensity (a.u.).

With “GGCAAAATTACACTGTATTACAGACCGTTAGTAACGTACACGGAGTCACCTAGTGCAG” as the sequence, how does the binding signal read?
Its binding signal is 6070 fluorescence intensity (a.u.).

For “TTATAATTATTTTAGGACAGATGTAGTAAGTATCAAAACACGGAGTCACCTAGTGCAG”, which binding signal is on record?
The binding signal was 9510 fluorescence intensity (a.u.).

Which binding signal does the source give for “GTGATAAACTATACTTATTAATTATGCAGGTAATATGTAACGGAGTCACCTAGTGCAG” here?
Its binding signal is 5550 fluorescence intensity (a.u.).

“ATTAATGTAAATTAAATCCAACAGAATTGCTCTTTTACATCGGAGTCACCTAGTGCAG” was tested. Which binding signal did it give?
Its binding signal is 23600 fluorescence intensity (a.u.).

How did the binding signal turn out when “GATGATGACGACAGTGACGCATTGGAAGATACATTCGCCTCGGAGTCACCTAGTGCAG” was run?
Its binding signal is 5530 fluorescence intensity (a.u.).

Which binding signal does the source give for “ATTTTAAACTCGACGACAAATTGACCGAGTCCCATCATTCCGGAGTCACCTAGTGCAG” here?
The binding signal was 4510 fluorescence intensity (a.u.).

For “AGTATAATATTAATTTATTGCACTTTCTGCTAGTTGCCTTCGGAGTCACCTAGTGCAG”, which binding signal is on record?
The binding signal was 11400 fluorescence intensity (a.u.).

For “AATGGTACTGATTAGATTATCTCTTTTCCTGAATTCTATGCGGAGTCACCTAGTGCAG”, which binding signal is on record?
Its binding signal is 23500 fluorescence intensity (a.u.).

“CTCCAAAACACTAATTAAGTTAACAAATAGAGCAACGAGCCGGAGTCACCTAGTGCAG” was tested. Which binding signal did it give?
The binding signal was 13600 fluorescence intensity (a.u.).
